According to the supplement of paper PMC3334620:
Whole data set: some 33,000 sequences, median “E-score (-0.5 to 0.5)” near -0.041, cut for the highest 2% near 0.37. The list shows a part of the results.

These sequences were tested against T1, Ecm22 (UniProt Q05958) (assay: PBM E-score (8-mer binding enrichment) (E-score (-0.5 to 0.5)); higher = stronger / more preferred TF binding; most listed sequences are background and not binding sites). Conditions: protein concentration: 200 nM; construct: GST-full length.
T1 sequence: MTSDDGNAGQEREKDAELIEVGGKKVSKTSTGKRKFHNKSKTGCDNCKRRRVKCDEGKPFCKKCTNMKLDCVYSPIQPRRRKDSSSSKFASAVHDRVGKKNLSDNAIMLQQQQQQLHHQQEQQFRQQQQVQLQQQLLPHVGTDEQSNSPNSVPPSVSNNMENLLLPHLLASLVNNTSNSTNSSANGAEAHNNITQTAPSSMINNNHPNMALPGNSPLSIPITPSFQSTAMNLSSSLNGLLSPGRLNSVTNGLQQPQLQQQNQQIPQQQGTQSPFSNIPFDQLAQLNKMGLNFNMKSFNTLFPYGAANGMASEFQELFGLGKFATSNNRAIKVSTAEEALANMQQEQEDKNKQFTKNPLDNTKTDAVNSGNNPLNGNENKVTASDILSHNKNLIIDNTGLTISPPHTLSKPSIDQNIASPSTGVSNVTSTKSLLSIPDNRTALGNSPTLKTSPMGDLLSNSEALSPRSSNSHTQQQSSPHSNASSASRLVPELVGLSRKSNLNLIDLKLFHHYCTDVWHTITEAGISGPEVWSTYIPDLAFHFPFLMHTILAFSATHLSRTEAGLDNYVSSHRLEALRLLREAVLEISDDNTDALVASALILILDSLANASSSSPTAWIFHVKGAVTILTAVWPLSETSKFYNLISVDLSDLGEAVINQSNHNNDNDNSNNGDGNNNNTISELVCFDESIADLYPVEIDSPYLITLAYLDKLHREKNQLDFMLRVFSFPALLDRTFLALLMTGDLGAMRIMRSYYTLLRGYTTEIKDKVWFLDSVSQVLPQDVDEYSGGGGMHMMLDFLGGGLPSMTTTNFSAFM
Outline: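 Universal all-10-mer Agilent arrays, fresh or stripped once, were converted to double-stranded form by primer extension. GST-tagged yeast transcription factors from PURExpress in vitro transcription/translation, full-length or DNA-binding domain only, were applied at about 100-200 nM and detected with fluorescent anti-GST. After masliner normalisation, the Universal PBM Analysis Suite scored each ungapped eight-base word together with its reverse complement by E-score.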

Sequence	PBM E-score
GGTCGCAC	0.228
CGATTACC	0.159
AGGCTAAG	-0.244
TCAGAGAA	-0.153
CTTCGCTA	0.178
AGACAAAT	-0.122
ACCGTATC	0.346
CATATAAG	0.0284
AACACAGG	-0.235
AGAGGATG	-0.0754
ACCTCACG	-0.188
GGTATCGA	0.107
CTAATGCC	-0.0353
CGTGAACC	-0.0188
AGTTCGAA	0.118
CTTCGGTA	0.0827
GCCTCTTA	0.0893
CTCTCAAC	-0.0965
CACTGACC	0.0493
GTAACAAA	0.157
GAGTGGGC	-0.039
AATTCTGC	0.00795
AAGCGGCG	0.135
TACATCAA	-0.142
AGATTTGG	-0.0939

Sequence	PBM E-score
CCGACTCG	0.183
CACAACCA	-0.032
AAGTATCC	0.026
AACTGTAG	-0.171
CGGACACG	0.189
AAATACAA	0.136
CGGGGGTC	-0.124
CACTTCGC	0.0491
GCCTGTAC	0.157
CCGGCTCG	0.179
CGACGAGA	0.08
CATGAAAA	0.00915
GGGAACCC	0.0178
CTATGTTC	-0.0416
ATGGGGCC	-0.398
AACAGAGA	-0.168
CAATGAAG	0.0367
AATAGTAT	0.0635
CCATCAAC	0.0649
GCCAGCGA	-0.13
AATAAGTC	-0.235
AGACCACT	-0.136
AACTTATT	0.0204
AACGGTTA	0.27
ACACTAGC	-0.124

Sequence	PBM E-score
ATTTAGCA	-0.0835
TAGCAGAA	-0.0438
AGGATGAG	-0.0765
TTCGAAAA	0.0735
ACGTGGAA	0.0168
AGGGAGAC	-0.102
CCTCTGGC	-0.116
ATACTCCC	-0.0754
AAGTAGTA	0.00915
CGCGAATC	0.161
ACCAAGAA	-0.0381
GTGCTACA	-0.309
CTTGGCCC	-0.231
GGATCCCC	-0.0315
CATCTGCA	-0.0833
GTTGCCCA	0.109
AGCTTGTG	-0.241
AACTCATC	-0.0804
GGGCTAAC	-0.248
CGGCGTGC	-0.188
GTAATCCA	-0.0841
AACGGAAG	0.187
CCGTTCAA	0.3
AGAATCAA	0.0427
ACTCCATG	-0.0728

Sequence	PBM E-score
CCGAAACC	0.00822
CACGCTAG	-0.168
AACACTGA	-0.059
GCAGAGCC	0.0795
CTATTGCC	-0.0904
AAAGCGCC	-0.0107
CGTTCCTA	0.439
AGATAATA	0.0537
AAATGAAT	-0.205
AAACGTGG	0.133
AGAGAAAT	0.0515
GAGGTGCA	-0.157
CGACTATA	0.205
CTATCCAC	-0.00901
ACACACGA	0.2
AGCCCTAA	-0.169
ACTGGATC	-0.0609
CAGATCAG	-0.143
CGCCACTC	-0.016
ATACTGCA	0.0221
AGATCCCC	-0.171
CCTAATCA	-0.118
AGGATAGA	-0.199
CTTATATC	-0.0977
CTCTTAAA	-0.0204

Sequence	PBM E-score
AGTCTCGG	0.24
ATGGCATA	0.149
AGCCCATG	-0.267
ATGTCCCC	-0.186
AGTCCCCC	-0.313
AGAAGAAT	-0.119
CACTCACC	-0.256
AAGGCTCT	-0.255
ATTACTTC	-0.0783
CCTTTGGA	-0.169
ATTTAAAC	0.163
CTCCTTAA	-0.221
GGCTGGAC	-0.199
AGTCACTG	-0.137
ATATGTCG	0.251
ACGAACTC	0.353
TAACCTTA	-0.209
CGTGTTCA	0.0358
GGTGGTGA	-0.1
AATATACA	0.104
ACGCTAAT	0.0368
ACAGTGCT	0.068
ATCTCAAT	0.029
CAGGACGG	-0.0607
CGCTCGCC	0.12

Sequence	PBM E-score
CTCCGCGA	0.0322
AGTCTCCA	-0.065
CTGTATTC	0.0901
GCTCAAGA	-0.198
GGTGTGTA	-0.0586
CCGAATCC	0.248
CCGATGAG	-0.116
CCATTGCC	-0.089
ACCATGAT	-0.0878
GGGTAGAC	-0.151
CGGCCAAG	-0.105
CTAGTCAA	-0.0961
TTGGCAAA	-0.0952
CTCTTGCA	-0.146
TAATGGCA	-0.165
ACCTTGAC	-0.285
ACATCCTC	0.0744
ATCTCACC	-0.156
CCGCACGC	-0.0486
ACCTTACA	-0.191
ATAGTGCC	0.0559
GGAGATAA	-0.0482
CCCTTGTC	-0.165
ACGTAAAA	0.243
GCGACGAA	0.26

Sequence	PBM E-score
CCTTTAAA	-0.135
AAGCAATG	-0.136
TAAGGCTA	0.0571
AAGAGATT	-0.173
AACTGACG	-0.13
CCGTTCGC	0.12
CACATAAC	-0.0514
CCGCAGCC	-0.0533
AGTTGAAG	-0.177
AAGCAACC	-0.119
ACACCCTA	-0.0231
GGTTACTA	-0.123
AACACATC	0.0582
ATCCGACG	0.207
AGAGCGCT	-0.217
AGGACGAT	0.0342
GGACGGTA	-0.17
CACGCGAC	0.0909
AGGAACCG	0.0955
CGCGCATA	0.0633
ATCGGAAT	0.00036
ACATAAGG	-0.0331
